Among all 150,000 compounds or so, about 540 (0.36%) showed an effect of 50% or more. The list shows a part of the results.

The test relates to Plasmodium falciparum. Nature of the test: Primary screen in NF54 nanoGlo assay, in single point, at 2uM, 72h; a lower Z score goes with more inhibition. To be noted: timepoint 72 hour. The class given is functional, Erythrocyte.
As a reminder, the % Inhibition is the change of the read-out against control, counted positive when it falls. For the compound `Clc1cccc(-c2ccc(CNC3CCCCC3)o2)c1`, the “% Inhibition” value is -9% and the Z score is recorded as 1.31.
Regarding `Cc1cccc(NCC(=O)Nc2nc(-c3ccc(Cl)cc3)cc(-c3ccc(Cl)cc3)n2)c1C`, the “% Inhibition” value was -10% and the Z score amounted to 1.6.
`CCOCCC(=O)Nc1ccc2c(c1)C(C)(C)CC2(C)C`: the “% Inhibition” value is on record as -8% and the Z score came to 1.42.
For `CN(c1nccn2c(=O)n(CC(=O)Nc3ccccc3F)nc12)C1CCCCC1`, the “% Inhibition” value is -13% and the Z score worked out at 1.29.
On to `O=C1CCCC1C1CCCN1C(=O)CCc1ccccn1` (stereo not given), for which the “% Inhibition” value stood at 9% and the Z score is -1.22.
In the same order, the values of `CCC1(CNC(=O)Nc2ccncc2F)CCC1` are 2% and -0.34.
For `CC1CC1C(=O)NCCC(=O)NCc1nc(-c2ccncc2)no1` (stereo not given) the same measures were -3% and 0.51.
As for `C[C@H]1CCCCN1C(=O)CN1C(=O)COc2ccc(Cl)cc21`, the “% Inhibition” value is reported as -6% and the Z score was 0.99.
For `CC1=C(C)C[C@@H](C(=O)NS(=O)(=O)CC(F)(F)F)CC1` the same measures were -5% and 0.91.
As for `O=C(O)C1(O)CCN(Cc2cc(Cl)ccc2OCC2CC2)CC1`, the “% Inhibition” value is listed as -4% and the Z score is recorded as 0.54.
As for `Cc1ccc(CNS(=O)(=O)c2ccc(-c3nnc(C4CC4)o3)s2)cc1`, the “% Inhibition” value is listed as -6% and the Z score is recorded as 1.2.
For `O=c1ccn(-c2ccccn2)n1CC[C@H]1CCCO1` the same measures were 2% and -0.42.
For `CN(C)c1ncccc1O[C@H]1CCN(S(=O)(=O)N2CCC2)C1` the same measures were -2% and 0.38.
For the compound `CC[C@H](OC1CCCC1)C(=O)N1CCC2(C1)OCCO2`, the “% Inhibition” value was -2% and the Z score was 0.27.
For `O=C(Nc1cccc(F)c1)c1cc2c(s1)CCCCC2`, the “% Inhibition” value is -12% and the Z score came out at 1.08.
For `COc1ccccc1C(C#N)NC(=O)C(C)N1CCCCCC1` (stereo not given), the “% Inhibition” value turned out to be 1% and the Z score is on record as -0.24.
Consider `CC(=O)NCCN(Cc1ccccc1)C(=O)c1cc2ccccc2n1C`, for which the “% Inhibition” value is on record as 28% and the Z score is -3.17.
For `CCOC(=O)[C@H]1CCCN(C(=O)c2nn(-c3ccc(C)c(C)c3)c(=O)n(Cc3cccc(C)c3)c2=O)C1` the same measures were -10% and 1.2.
In the same order, the values of `CN1CCCCc2c1nc1ccccc1c2O` are -19% and 2.5.
In the same order, the values of `Cc1cncc(CNC(=O)[C@@H]2Cc3ccccc3O[C@H]2C(F)F)c1` are -4% and 0.52.
As for `CCN1C(=O)N(c2nc3ccccc3s2)C(=O)[C@@H]1Cc1ccccc1`, the “% Inhibition” value was -7% and the Z score turned out to be 0.88.
With `CC(C)CNC(=O)CCN(c1nc(C2CC2)nc2cc(Cl)ccc12)C(C)C`, the “% Inhibition” value is reported as -6% and the Z score is on record as 1.11.
On to `CC(C)[C@H]1OCC[C@@H]1CNC(=O)CCn1ccnn1`, for which the “% Inhibition” value is listed as -9% and the Z score is reported as 1.87.
For `COc1ccc(-c2cn(-c3ccc(OC)cc3)c(NC(=O)CN(C[C@H]3CCCO3)C(=O)c3ccc(C)cc3)n2)cc1` the same measures were -7% and 1.1.
For `OCCN(Cc1nsc2ccccc12)C1CCC1` the same measures were -14% and 1.59.
For `COc1ccc(Cl)cc1N1CCC(NC(=O)NCC2CCOC2(C)C)C1` (stereo not given) the same measures were -6% and 0.62.
Consider `Cc1nn(C)cc1C(=O)NC[C@H]1CCCN(C(=O)OCc2ccccc2)C1`, for which the “% Inhibition” value is -12% and the Z score was 1.51.
Take `CC(=O)N(C)CC(=O)NCc1ccc(Br)cc1Cl`: the “% Inhibition” value is listed as -14% and the Z score was determined as 1.25.
For `c1nc(C2CC2)oc1-c1cn2c(n1)CCC2` the same measures were 2% and -0.3.
In the same order, the values of `O=C(NC1CCN(c2nc3ccccc3o2)CC1)c1ccccc1` are -45% and 5.33.
For `CC(C)(C)c1cnc(CN[C@@H]2CCCC[C@H]2S(C)(=O)=O)s1` the same measures were -7% and 0.69.
For the compound `Cc1noc(C)c1CN(C)C(=O)Nc1cc(C(F)(F)F)c[nH]c1=O`, the “% Inhibition” value is on record as 3% and the Z score is on record as -0.45.
For `Cc1nc(CN[C@@H](CCO)C(C)(C)C)sc1C`, the “% Inhibition” value is reported as -1% and the Z score was 0.15.
In the same order, the values of `CCOC(=O)c1cc(CNC(=O)C(C)(C)C)ccc1Cl` are 0% and -0.02.
With `CCCC(=O)OC[C@@H](O)CN(Cc1ccccc1C)CC(C)C`, the “% Inhibition” value is on record as -7% and the Z score was 0.88.
As for `CN(C)S(=O)(=O)c1cccc(-c2nnc(C3(C)CCOCC3)o2)c1`, the “% Inhibition” value is listed as -16% and the Z score stood at 2.54.
For `Cc1cccc(NC(=O)NCC2CCC3(CC2)OCCO3)c1F` the same measures were -7% and 0.72.
For `Cc1ccc(O[C@H]2CCOC[C@H]2NC(=O)c2sccc2N)cn1` the same measures were 0% and 0.06.
In the same order, the values of `CC(C)C(=O)N(CCCN1CCCC1)[C@H]1CCCN(C(=O)CC2CCCCC2)C1` are -3% and 0.53.
With `O=C(CCC1CCN(C[C@H]2CCOC2)CC1)Nc1ccccc1Cl`, the “% Inhibition” value is reported as -3% and the Z score is recorded as 0.41.
For `Cc1ccc(S(=O)(=O)N2Cc3ccccc3C[C@H](C(=O)O)C2)cc1` the same measures were -7% and 0.85.
For `CCOc1ccc(CCNC(=O)C2CCN(S(=O)(=O)c3c(C)nn(C)c3C)CC2)cc1OCC`, the “% Inhibition” value was -1% and the Z score worked out at 0.15.
For `Cc1nnc(-c2ccccc2-c2cccc3ccnn23)o1` the same measures were -10% and 1.88.
For `Cc1c(NC(=O)c2ccc3[nH]c4c(c3c2)CCCC4)c(=O)n(-c2ccccc2)n1C`, the “% Inhibition” value is -3% and the Z score came to 0.5.
For `C[C@H](Nc1ccc(C#N)cn1)C(=O)Nc1ccccc1` the same measures were -4% and 0.49.
For `CCN1C[C@H](NC(=O)c2ccc(-c3cc(C)ccc3Cl)cc2)[C@@H](OC)C1` the same measures were -15% and 1.63.
As for `CCOc1ccc(C(=O)N2CCCN(c3ccc(=O)n(-c4ccc(C)cc4)n3)CC2)cc1OCC`, the “% Inhibition” value stood at 15% and the Z score is listed as -1.73.
In the same order, the values of `C[C@@H](c1ccon1)N(C)Cc1c[nH]nc1-c1ccc(-c2ccccc2)cc1` are 1% and -0.11.
Consider `CCCS(=O)(=O)NC[C@H](OC)c1ccccc1C`, for which the “% Inhibition” value was found to be 17% and the Z score is listed as -2.12.
In the same order, the values of `Cc1ccc2ncnc(N(C)C3CCCCC3)c2c1` are -1% and 0.19.
For `COc1cc(Br)c(CN(C)CCc2cnccn2)c(OC)c1` the same measures were 0% and 0.05.
Consider `CC(C)C[C@H](NC(=O)Nc1cccc(-c2nnn(C)n2)c1)c1cccnc1`, for which the “% Inhibition” value came out at 1% and the Z score is -0.1.
With `O=C1CCN(Cc2ccon2)c2ccc(F)cc2N1`, the “% Inhibition” value is -10% and the Z score came out at 1.63.
With `O=C(CN1C(=O)CCC1=O)N1CCC(Oc2cnc3ccccc3n2)CC1`, the “% Inhibition” value is listed as -14% and the Z score turned out to be 2.66.
For the compound `Cc1cccc(N2CCN(C(=O)c3ccc(OCc4cn5cccc(C)c5n4)cc3)CC2)c1`, the “% Inhibition” value is -13% and the Z score stood at 2.65.
In the same order, the values of `Cc1nc(C)c(Cc2ccc(Cl)cc2)c(N2CCN(C(=O)Nc3ccc(C(C)C)cc3)CC2)n1` are -2% and 0.34.
As for `O=C(OCc1cn(-c2ccccc2)nc1-c1ccc(Cl)cc1)c1cc(Cl)ccc1Cl`, the “% Inhibition” value was -7% and the Z score turned out to be 1.15.
`COc1cccc(CN2Cc3ncccc3C2=O)c1OC`: the “% Inhibition” value is recorded as -9% and the Z score is given as 1.6.
Turning to `Nc1c(Cl)ccc(C(=O)N2CC[S+]([O-])CC2)c1Cl`, the “% Inhibition” value came out at 7% and the Z score is -1.
In the same order, the values of `Cc1ccc(C)c(NS(=O)(=O)c2cc3c(cc2C)N(Cc2noc(C4CC4)n2)C(=O)CO3)c1` are 5% and -0.63.
In the same order, the values of `Cc1ccc(C(=O)N(Cc2ccco2)C2CC2)cn1` are -3% and 0.26.
In the same order, the values of `Cc1n[nH]c(NS(=O)(=O)c2cccnc2)c1C#N` are -1% and 0.12.
As for `CNS(=O)(=O)c1ccc(-c2ccc(N)cn2)cc1`, the “% Inhibition” value is given as -17% and the Z score is given as 2.14.
For `Cc1cc(-c2ccc(C(=O)NC[C@H]3CCOC3)cc2)c2ccccc2n1` the same measures were -5% and 0.8.
For `COCCN(C)S(=O)(=O)Nc1c(O)cccc1C(=O)OC` the same measures were -5% and 0.6.
In the same order, the values of `CC[C@H]1CCCN1C(=O)Nc1cccc(C(=O)N(C)C)n1` are -8% and 1.3.
Turning to `O=C(COc1ccc(Cl)cc1Cl)N1CCC2(CCO2)CC1`, the “% Inhibition” value is given as -1% and the Z score came out at 0.12.
Turning to `COc1ccc([C@@H]2CC(c3cccn3C)=NN2C(=O)CN(CCN2CCOCC2)C(=O)C2CCCC2)cc1`, the “% Inhibition” value is listed as -14% and the Z score worked out at 1.44.
Regarding `COc1ccccc1OCC(=O)NC1(c2cccs2)CCOCC1`, the “% Inhibition” value is recorded as 4% and the Z score is reported as -0.49.
In the same order, the values of `CCCn1cc(CN2C[C@H](C)OCC2(C)C)cn1` are -2% and 0.27.
In the same order, the values of `COc1cccc(C(=O)N2CCC[C@H](Oc3nccnc3C#N)C2)c1OC` are -7% and 1.21.
With `Cc1csc(C(C)(C)NCC(=O)N2CCC[C@H]2c2cccs2)n1`, the “% Inhibition” value is listed as -12% and the Z score was 1.16.
For `CC[C@H](C)NC(=O)Nc1cccc(C(N)=O)c1C` the same measures were -7% and 0.65.
Take `O=C(O)C[C@@H]1CCN(C(=O)Nc2ccccc2)C[C@@H]1Cc1nc2ccc(F)cc2[nH]1`: the “% Inhibition” value is -6% and the Z score is given as 0.8.
Turning to `OC1CCCC1Nc1ccc(OC(F)F)cn1` (stereo not given), the “% Inhibition” value is -5% and the Z score is reported as 0.49.
In the same order, the values of `CC(C)Oc1cccc([C@@H](Nc2cnn(-c3ncccc3F)c2)C(F)F)c1` are 1% and -0.21.
In the same order, the values of `Cc1nc[nH]c1-c1nccn1Cc1nc2c(s1)CCCC2` are -16% and 2.18.
In the case of `CC[C@H](Oc1ccccc1C)c1nnc(-c2cn(C)nn2)o1`, the “% Inhibition” value was determined as 8% and the Z score is reported as -1.06.
In the same order, the values of `CCCc1cc(C(=O)N2CCC([C@]3(C)NC(=O)N(Cc4ccsc4)C3=O)CC2)n(C)n1` are -4% and 0.79.
In the same order, the values of `CC(C)n1c([C@H]2CCN(C(=O)Cc3cccc(F)c3)C2)nc2ccncc21` are -12% and 1.16.
For `Cc1cc(C(=O)N[C@H](c2c(C)nn(C)c2C)C(F)(F)F)cc(O)n1` the same measures were -4% and 0.72.
In the case of `Cc1ccc(F)cc1Cc1nc([C@H](O)c2ccccc2)nn1CCO`, the “% Inhibition” value is reported as -6% and the Z score came out at 0.68.
In the same order, the values of `CCn1c(CC2CCN(c3nc4c(cc3C(N)=O)CCC4)CC2)n[nH]c1=O` are -9% and 1.34.
For `Cc1ccc(-c2nc(CNC(=O)c3cncnc3C)[nH]c2-c2ccccn2)cc1` the same measures were -3% and 0.46.
As to `O=S(=O)(c1ccc(F)c(Cl)c1)N1CCn2nc([C@@H](O)CO)cc2C1`, the “% Inhibition” value is on record as -7% and the Z score amounted to 1.35.

For the origin of these results see ChEMBL document CHEMBL4888484, “Replenishing the malaria drug discovery pipeline: Screening and hit evaluation of the MMV Hit Generation Library 1 (HGL1) against asexual blood stage Plasmodium falciparum ,using a nano luciferase reporter read-out” (2022).
